# Measurements reported in PubChem BioAssay AID1240 (Sanford-Burnham Center for Chemical Genomics, 2008).
# Among all 50,000 compounds or so, about 800 (1.6%) showed an effect of 50% or more. The list shows a part of the results.
# Target: Bcl-2-like protein 10 (Homo sapiens) (UniProt Q9HD36)
# Test: Phenotype converters, Bcl-B/TR3 peptide binding displacement, primary biochemical FP (AID 1240);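 further: 0% = Bcl-B with tracer peptide and DMSO and 100% = tracer peptide lacking Bcl-B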
# Conditions: GST-Bcl-B / FITC-TR3 peptide fluorescence polarization; stronger effect = higher value; compound at 3.75 mg/L
# Sequence of UniProt Q9HD36 (Q9HD36 whole entry, looked up): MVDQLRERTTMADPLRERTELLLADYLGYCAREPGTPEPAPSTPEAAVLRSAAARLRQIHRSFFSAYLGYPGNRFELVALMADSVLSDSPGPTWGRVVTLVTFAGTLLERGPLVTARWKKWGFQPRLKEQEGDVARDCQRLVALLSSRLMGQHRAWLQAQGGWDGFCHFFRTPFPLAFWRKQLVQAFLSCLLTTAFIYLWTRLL
row,Compound,displacement
1,N#Cc1c(/N=C\c2ccc(N3CCOCC3)c([N+](=O)[O-])c2)sc2c1CCCC2,81.3%
2,O=C(O)c1ccccc1C(=O)Nc1ccc2c(c1)C(=O)c1ccccc1C2=O,14.4%
3,CCOC(=O)c1c(-c2ccccc2)csc1NC(=O)c1sc2ccccc2c1Cl,3.5%
4,Cc1ccc(C(=O)N/C(=C\c2cccc([N+](=O)[O-])c2)C(=O)Nc2ccc(C)cc2C)cc1,-4.4%
5,COc1ccc2c(c1)CC(C1(O)C(=O)N(C)c3ccccc31)C2=O (stereo unspecified),7%
6,Cc1cc(Cl)ccc1OCC(=O)NCCc1nc2ccccc2[nH]1,15.5%
7,Cc1ccc(/C(O)=C2\C(=O)C(=O)N(c3ccc(O)cc3)C2c2cccc([N+](=O)[O-])c2)cc1 (stereo unspecified),5.5%
8,O=C(CCN1C(=O)S/C(=C\c2ccc(Cl)cc2)C1=O)Nc1ccccc1,-5.3%
9,Cc1[nH]n(-c2ccccc2)c(=O)c1/C=N/NC(=O)COc1ccc(C(C)(C)C)cc1,-4%
10,CCCCOc1ccc(C2Nc3ccccc3NC3=C2C(=O)CC(C)(C)C3)cc1 (stereo unspecified),5.9%
11,CC1CCc2c(sc(NC(=O)CCc3ccccc3)c2C(N)=O)C1 (stereo unspecified),11.3%
12,NS(=O)(=O)c1ccc(N/C=C/C(=O)c2ccco2)cc1,74.8%
13,Cc1cc(N2CCN(C/C=C/c3ccccc3)CC2)nc2ccccc12,-22.5%
14,Cc1cc(C)cc(NC(=O)CN(c2cccc(C(F)(F)F)c2)S(C)(=O)=O)c1,7.2%
15,Cc1ccccc1N1C(=O)/C(=C/c2cc(C)n(-c3cccnc3)c2C)C(=O)NC1=S,42.1%
16,O=C1NC(=O)N(c2ccc(Cl)cc2)C(=O)/C1=C\c1cccc(O)c1,10.5%
17,CCCCCCOc1ccc(N2C(=O)CC(NCc3ccc(OC)cc3)C2=O)cc1 (stereo unspecified),4.5%
18,C=CCNC(=O)CN(c1cccc(OC)c1)S(=O)(=O)c1ccccc1,2.6%
19,Cc1ccc(CN2CCN(N=Cc3ccccc3Br)CC2)c(C)c1,11.2%
20,COc1ccc(S(=O)(=O)N(CCc2ccccc2)CC(=O)Nc2cccc(Cl)c2C)cc1,-20.5%
21,CC(Nc1n[nH]c(=O)[nH]c1=O)C(=O)OCc1ccccc1 (stereo unspecified),-2.7%
22,CCOc1ccccc1NC(=O)CN1C(=O)/C(=C/c2cccc(Br)c2)SC1=S,78.7%

row,Compound,displacement
1,O=C(Nc1ccccc1)C1CC(=O)N(c2ccccc2)C1 (stereo unspecified),-5.5%
2,CC1CCCCN1S(=O)(=O)c1ccc(F)cc1 (stereo unspecified),-11.3%
3,COc1ccc(S(=O)(=O)Nc2cc(C)ccc2OC)cc1Br,12.8%
4,COC(=O)C1=C(C)NC2=C(C(=O)CC(c3ccccc3)C2)C1c1cc(OC)c(OC)cc1[N+](=O)[O-] (stereo unspecified),21.8%
5,COc1ccc(NC(=O)C(O)(c2ccccc2)c2ccccc2)cc1,11.1%
6,COc1ccc(OC)c(C=NN2CCN(Cc3ccccc3Cl)CC2)c1,-4.7%
7,CSc1ccc(C=Nc2ccc(S(N)(=O)=O)cc2)cc1,4.9%
8,Cc1c(C(=O)Nc2ccc(NC(=O)c3ccc(C(C)(C)C)cc3)cc2)cccc1[N+](=O)[O-],1.2%
9,Cc1ccc(N(CC(=O)N/N=C/c2ccccc2)S(=O)(=O)c2ccccc2)cc1,4.2%
10,CCC12c3ccccc3C(c3ccccc31)C1C(=O)N(c3ccc4c(c3)OCO4)C(=O)C12 (stereo unspecified),-1.9%
11,COc1ccc(/C(N)=N/OC(=O)c2ccco2)cc1,4.9%
12,Cc1ccc(C(=O)c2ccc(Br)c([N+](=O)[O-])c2)cc1,0%
13,COc1ccc(N2C(=O)CSC23C(=O)Nc2ccccc23)cc1 (stereo unspecified),13.1%
14,COC(=O)c1ccc(/C=C2\SC(=Nc3cccc(Cl)c3C)NC2=O)cc1,26.5%
15,Cc1cccc(/C=C2/SC(=O)N(CN3CCCCC3)C2=O)c1,7.1%
16,CC1=C(C(=O)Nc2ccc(C)cc2)C(c2ccc(Br)cc2)NC(=S)N1 (stereo unspecified),8.6%
17,COc1cc(/C=c2\sc3nc4c(C)cc(C)cc4n3c2=O)cc(Br)c1O,-52.6%
18,CCC(CO)NC1=C(Cl)C(=O)c2ccccc2C1=O (stereo unspecified),42.3%
19,O=C(NN1C(=O)C2C(C1=O)C1C=CC2C12CC2)c1ccc(Cl)cc1Cl (stereo unspecified),3.2%
20,CC(C)CNC(=O)/C(=C/c1ccc(F)cc1)NC(=O)c1ccccc1,14.6%
21,COc1ccccc1C/C(N)=N/OC(=O)Cc1ccc(Cl)cc1,0.4%
22,C=CCN1C(=O)/C(=C\c2cc(OC)ccc2OC)C(=O)NC1=S,1.4%

row,Compound,displacement
1,O=C(c1ccc(F)cc1)N1CCN(c2ccc(Cl)cc2[N+](=O)[O-])CC1,-4.5%
2,CC1(C)CC(NC(=O)c2cccc(I)c2)CC(C)(C)N1,12.3%
3,Cc1ccc(NCC(=O)N/N=C\c2ccc[nH]2)cc1,-4.6%
4,O=[N+]([O-])c1cccc(S(=O)(=O)N2CCCC2)c1,-0.6%
5,CCn1c2ccccc2n2cc(-c3ccc([N+](=O)[O-])cc3)nc12,-8%
6,CCOc1cc(/C=C2\SC(=S)N(c3cccc(C)c3C)C2=O)ccc1O,-8.8%
7,Cc1occc1C(=O)Nc1ccc(I)cc1C(=O)O,22.7%
8,O=C(c1cc(-c2ccc(Br)cc2)nc2ccccc12)N1CCN(c2ccc(F)cc2)CC1,0.3%
9,ON1C(c2ccccc2)CC2(O)c3nonc3CCC12 (stereo unspecified),0.3%
10,Cc1ccc(CCC(=O)Nc2ncc(Cc3cccc(Cl)c3)s2)o1,15.9%
11,O=C(CSc1ccc(Cl)cc1)Nc1ccc(F)c(Cl)c1,-11.1%
12,Cc1ccc(C2=NOC(=O)/C2=C\C=C\c2ccccc2)cc1,9.5%
13,Cc1c(-c2nc(-c3ccc(Cl)cc3)no2)cccc1[N+](=O)[O-],-4.7%
14,CC12C(=O)C(C)(C(c3ccccc3)=C1c1ccccc1)C1C(=O)N(c3ccccc3Cl)C(=O)C12 (stereo unspecified),4.4%
15,COC(=O)C1=C(C)NC(=O)CC1c1c(F)cccc1Cl (stereo unspecified),5.7%
16,Cc1ccc(C2=N/C(=C\c3ccc([N+](=O)[O-])cc3)C(=O)O2)cc1,-0.4%
17,COc1ccc(C(=O)/C=C/c2ccc(OC)c3cccc(O)c23)cc1OC,-13.4%
18,O=C(Oc1cccc(/C=N/NC(=O)c2ccccn2)c1)c1cccc(F)c1,-4.2%
19,CC1=C(C#N)C(=O)NC(=O)/C1=C\c1ccc(-c2cccc(Cl)c2)o1,24.7%
20,CC(=O)N1CCN(c2cc(N3CCOCC3)c(F)cc2[N+](=O)[O-])CC1,-17.4%
21,O=C(C1=C(Nc2ccc(Br)cc2)CCCC1)C(F)(F)F,5.4%
22,CCOc1ccccc1C(=O)N/N=C/c1cn(-c2ccccc2)nc1-c1ccc(OC)cc1,-5.8%
